Data reported in PMC6753081 (Nature Communications, 2019).

Biological target: T1, A. fumigatus CN/FKBP12 complex (CnA/CnB/AfFKBP12) (Aspergillus fumigatus, UniProt Q4WDF2+Q4WLV6+Q4WUR1)
T1 construct: gene cnaA
Assay: complex formation on recombinant expression
Assay type: binding
Conditions: ternary complex formed in presence of compound; not crystallized

In the case of `C=CC[C@@H]1/C=C(\C)C[C@H](C)C[C@H](OC)[C@H]2O[C@@](O)(C(=O)C(=O)N3CCCC[C@H]3C(=O)O[C@H](/C(C)=C/[C@@H]3CC[C@@H](O)[C@H](OC)C3)[C@H](C)[C@@H](O)C/C1=N/NC(C)=O)[C@H](C)C[C@@H]2OC` [APX879], the “complex formation on recombinant expression” value was “complex formation between A. fumigatus CN and FKBP12 in the presence of APX879”.
